Test results published in publication PMC4336329 (PLoS ONE, 2015).
The campaign covered roughly 310,000 compounds. About 14,000 (4.5%) showed an effect of 50% or more. Effects have a minus sign here. This is one part of the list.

The compounds below were run against human ether-à-go-go-related gene (hERG) potassium channel (human, UniProt Q12809) (assay: primary screen, population patch clamp on CHO cells stably expressing hERG).
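Further: peak tail current of the secondary pulse compared with the same well before compound.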

human ether-à-go-go-related gene (hERG) potassium channel, sequence (Q12809 whole entry, looked up): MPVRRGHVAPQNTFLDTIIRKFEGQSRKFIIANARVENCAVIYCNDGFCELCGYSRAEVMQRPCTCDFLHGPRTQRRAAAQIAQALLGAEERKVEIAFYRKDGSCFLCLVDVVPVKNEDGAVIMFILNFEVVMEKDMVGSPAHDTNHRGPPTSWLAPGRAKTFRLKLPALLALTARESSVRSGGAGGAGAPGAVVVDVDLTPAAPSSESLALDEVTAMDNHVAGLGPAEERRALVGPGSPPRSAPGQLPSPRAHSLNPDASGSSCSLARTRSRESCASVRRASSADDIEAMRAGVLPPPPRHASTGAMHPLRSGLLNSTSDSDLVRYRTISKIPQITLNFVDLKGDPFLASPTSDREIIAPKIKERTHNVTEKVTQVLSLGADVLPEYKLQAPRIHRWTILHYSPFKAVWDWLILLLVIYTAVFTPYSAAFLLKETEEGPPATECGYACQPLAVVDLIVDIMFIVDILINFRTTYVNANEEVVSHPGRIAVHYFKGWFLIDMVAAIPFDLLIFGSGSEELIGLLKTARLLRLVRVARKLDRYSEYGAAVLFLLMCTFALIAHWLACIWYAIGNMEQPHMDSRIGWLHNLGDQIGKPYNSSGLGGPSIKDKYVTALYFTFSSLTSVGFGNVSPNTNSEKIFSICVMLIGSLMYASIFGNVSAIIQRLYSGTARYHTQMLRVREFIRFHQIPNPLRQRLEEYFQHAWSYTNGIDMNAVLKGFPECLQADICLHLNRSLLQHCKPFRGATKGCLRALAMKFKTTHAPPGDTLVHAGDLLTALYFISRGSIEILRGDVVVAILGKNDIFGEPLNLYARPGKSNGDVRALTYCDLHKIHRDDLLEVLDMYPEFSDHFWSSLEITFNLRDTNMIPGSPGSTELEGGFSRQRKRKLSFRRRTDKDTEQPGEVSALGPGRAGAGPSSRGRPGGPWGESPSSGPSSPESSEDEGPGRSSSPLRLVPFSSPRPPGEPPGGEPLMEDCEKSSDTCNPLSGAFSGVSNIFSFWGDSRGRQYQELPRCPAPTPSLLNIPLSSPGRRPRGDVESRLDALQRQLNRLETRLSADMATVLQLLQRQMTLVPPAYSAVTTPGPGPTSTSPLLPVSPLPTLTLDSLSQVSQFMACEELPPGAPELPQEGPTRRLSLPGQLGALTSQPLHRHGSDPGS

| SMILES | hERG current change (%, negative = inhibition) at 10uM [%] |
| --- | --- |
| COc1ccc2cc(C(c3nnnn3CCc3ccccc3)N3CCCC(C)C3)c(=O)[nH]c2c1 (stereo not shown) | -33.1 |
| O=C(Nc1ccccc1)/C(=C1\CCCN1)[N+](=O)[O-] | -0.153 |
| CCCC(=O)C1=C(O)C(C(=O)OC)C(C)(C)CC1=NC(C)C (stereo not shown) | 15.1 |
| CCOC(=O)c1ccc(NC(=O)c2cn(-c3ccccc3)nc2-c2ccncc2)cc1 | -48 |
| O=C(Nc1ccccc1C(=O)NCCc1ccccc1)c1ccco1 | -15.5 |
| Cc1cccc(NC(=O)CSc2ccc(C(N)=O)cc2[N+](=O)[O-])c1C | 2.09 |
| O=C(Nc1ccc2c(c1)C(=O)N(CC1CCCO1)C2=O)c1ccccc1Br (stereo not shown) | 2.03 |
| Cc1cc(N2CCOCC2)n2nc(C(F)(F)F)c(-c3ccccc3)c2n1 | 12.7 |
| COc1ccc(C(C)=O)cc1CSc1ccc2c(c1)OCCO2 | -2.43 |
| COCCSc1nc(N)c2c3c(sc2n1)CN(C)CC3 | -9.41 |
| O=C(CSc1nnc(-c2cccnc2)s1)Nc1ccnc2ccccc12 | -4.36 |
| CCOC(=O)c1nn(-c2ccccc2)c(=O)c2c(N)scc12 | 1.16 |
| O=C(c1cc(=O)[nH]c2ccc(Br)cc12)N1CCC2(CC1)OCCO2 | 12.6 |
| COc1ccc(S(=O)(=O)N2CCOC2CNC(=O)C(=O)NCCCN2CCOCC2)cc1 (stereo not shown) | 13.5 |
| Cc1ccccc1NC(=O)c1nc(S(C)(=O)=O)ncc1Cl | 13.8 |
| Cc1cc(C)n2ncc(C(=O)NC3CCCCC3)c2n1 | -0.842 |
| CCN(C(=O)Nc1ccccc1OC)c1c(N)n(Cc2ccccc2)c(=O)[nH]c1=O | 14 |
| COCC(C)NC(=O)/C=C/c1ccc(OC)cc1 (stereo not shown) | 9.71 |
| CN(C)CCCN(C(=O)CCSc1ccccc1)c1nc2cc3c(cc2s1)OCO3.Cl | -48.2 |
| CN(C)/C=C/C(=O)c1cnc(-c2ccccc2)s1 | 0.319 |
| Nn1c(SCc2ccc(Br)cc2)nnc1-c1ccncc1 | -38.5 |
| CC1CCCCC1NC(=O)c1ccc(S(=O)(=O)NNC(=O)c2ccncc2)cc1 (stereo not shown) | 14.1 |

| SMILES | hERG current change (%, negative = inhibition) at 10uM [%] |
| --- | --- |
| COc1ccccc1N(C(=O)c1snc(C(N)=O)c1N)C(C(=O)NCCC(C)C)c1ccco1 (stereo not shown) | -20.5 |
| CC1(C)C2CCC1(CS(=O)(=O)Nc1ccc(S(=O)(=O)NC3CCCCC3)cc1)C(=O)C2 (stereo not shown) | -30.9 |
| CC1CCC(NC(=O)CC2Oc3ccccc3NC2=O)CC1 (stereo not shown) | 3.8 |
| CCCN1C2CCCC1CC(NC(=O)c1ccccc1F)C2 (stereo not shown) | -21.7 |
| O=[N+]([O-])c1ccccc1O[C@@H]1O[C@H](CO)[C@H](O)[C@H](O)[C@H]1O | 11 |
| CCOC(=O)Cn1c(SC)nc2sc3c(c2c1=O)CC(C)(C)OC3 | 2.04 |
| COc1ccc(N(CC(=O)NCCC2=CCCCC2)S(=O)(=O)c2ccccc2)c(OC)c1 | -8.73 |
| Cc1ccc(S(=O)(=O)N2CCC(C(=O)OCC(=O)NCc3ccco3)CC2)cc1C | -23.8 |
| CN(Cc1ccccc1F)Cc1cc(=O)oc2cc(O)c(Cl)cc12 | 12.6 |
| COc1ccccc1C(=O)NNC1=NS(=O)(=O)c2ccccc21 | 20.3 |
| Cc1cccc(NC(=O)N2CCCC2C(=O)Nc2ccccc2)c1 (stereo not shown) | 3.62 |
| C[C@@H](C(=O)OCn1nnc2ccccc2c1=O)N1C(=O)C2CCCCC2C1=O (stereo partly shown) | 9.61 |
| Cc1ccc(C)c(Cn2nnc(C(=O)Nc3ccc4c(c3)OCCO4)c2N)c1 | 2.15 |
| O=C(CCC(=O)N1CCN(c2ccccc2F)CC1)N1CCN(c2ccccc2)CC1 | -22.8 |
| O=C(CN1CCN(C(=O)N2CCCCC2)CC1)Nc1ccc(F)cc1 | -74.9 |
| CCn1nc(C)c(/C=N/NC(=O)c2nc3nc(C)cc(C)n3n2)c1C | 14.1 |
| COc1cc(-c2cc(-c3ccccc3)nc(SCC(=O)Nc3nccs3)c2C#N)cc(OC)c1OC | 17.9 |
| CCOC(=O)C1CCN(C(=O)N(CC)CC)CC1 | 11 |
| COc1cccc(NC(=O)Nc2ccc(Cc3ccncc3)cc2)c1 | 11 |
| CCOc1ccc(CC(=O)N/N=C(\C)c2cccnc2)cc1OCC | 17.8 |
| COc1cccc(N(C(=O)Cc2cccs2)C(C(=O)NC2CCCC2)c2ccncc2)c1 (stereo not shown) | 1.74 |
